{"source": "the RNAGym collection of RNA variant scans (doi:10.7554/elife.90254)", "parents": {"B1": {"name": "LINE1-mini (parent)", "chain": "GGCAGAGCUCAACACAGCGUGGCAAAGUGGCUGUGGCUAGACUGCC"}}, "note": "Read counts are not given, so values of variants with three or more changes are uncertain.", "data": [{"variants_of": "B1", "experiment": "self-cleavage, relative activity (ratio to wild type); higher = more cleavage; in vitro, sequencing; the parent is a self-cleaving ribozyme", "values": [{"variant": "UGCAGAGCUCCACACAGCGUGGCAAAGUGGCAGUGGCUAGACUGCC", "note": "[G1U A11C U32A]", "self-cleavage": 0.01}, {"variant": "UGAAGAGCUCAACACAGCGUGGAAAAGUGGCUGUGGCUAGACUGCC", "note": "[G1U C3A C23A]", "self-cleavage": 0.8}, {"variant": "UGCAGAGCUCAGCAUAGCGUGGCAAAAUGGCUGUGGGUAUACUGCC", "note": "[G1U A12G C15U G27A C37G G40U]", "self-cleavage": 0.13}, {"variant": "UGGAGAGCCCAACACAGCGUGGCAAAGUGGCUGUGGCUUGACUGAC", "note": "[G1U C3G U9C A39U C45A]", "self-cleavage": 0.01}, {"variant": "UGCAGAGCUCCACACAGCGUGGCAAAGUGGCUGUGGCUAGACUGCA", "note": "[G1U A11C C46A]", "self-cleavage": 0}, {"variant": "UGCAGGGCUCAACACAGCGUGGCAAAGUGGAUGUGCAUAGACUGCC", "note": "[G1U A6G C31A G36C C37A]", "self-cleavage": 0.01}, {"variant": "UGCAGGGCUCAACACAGCGUGGCAAAGUGGCUGUGGGUAGACCGCC", "note": "[G1U A6G C37G U43C]", "self-cleavage": 0.01}, {"variant": "UGCAGAGCUCAACACAGCGUGGCAAGGGGGCUGUGACUAGACUGCC", "note": "[G1U A26G U28G G36A]", "self-cleavage": 0.07}, {"variant": "UGCAGCGCUCAACUCAACGUGGCAAAGUGGCUGUGGCAAGACUGCC", "note": "[G1U A6C A14U G17A U38A]", "self-cleavage": 0.11}, {"variant": "UGCAGGGCUCAACACAGCCUCGCAAAGUAGCUGUGGCUAGACUGCU", "note": "[G1U A6G G19C G21C G29A C46U]", "self-cleavage": 0.02}, {"variant": "CGCAGAGCUCAACACAGCGUGGCAAAGUGGCUGGGGCUAGACUCCC", "note": "[G1C U34G G44C]", "self-cleavage": 0.02}, {"variant": "UGCAGAGCUCAACACGGCGUGGCAAAGUGGUUGUGGCUAGACUGCC", "note": "[G1U A16G C31U]", "self-cleavage": 0.06}, {"variant": "UGCAGAGCUCAACACGGCGUGGCAAAGUGGGUGUGGCUAGACUGCC", "note": "[G1U A16G C31G]", "self-cleavage": 0.02}, {"variant": "UGCAGAGCUCAACCCAGCGUGGCAAAGUGGAUGUGGCUAGACUGCC", "note": "[G1U A14C C31A]", "self-cleavage": 0.01}, {"variant": "UGCAGAGCUCAACACAGCGUGGCAUAGUGGCUGAGGCUAGACUGCC", "note": "[G1U A25U U34A]", "self-cleavage": 0.03}, {"variant": "CGCAGAGCUCAACACAGCGUGGCAAAGUGGCUGAUGCUAGGCUGCC", "note": "[G1C U34A G35U A41G]", "self-cleavage": 0.02}, {"variant": "UGCAGGGCUCAACACAGCAUGGCAAAGUGGCUGUGGCUAGACAGUC", "note": "[G1U A6G G19A U43A C45U]", "self-cleavage": 0.04}, {"variant": "UGCAGAGCUCAACCCAGCGUGGCAAAGUGGCUGAGGCUAGACUGCC", "note": "[G1U A14C U34A]", "self-cleavage": 0.02}, {"variant": "UGAAGAGCUCCACAAAGCGUGGCAAAGUGGCUGUUGCUAGACUGCC", "note": "[G1U C3A A11C C15A G35U]", "self-cleavage": 0.04}, {"variant": "UGCAGAGCUCAACACGGCGGGGCAAAGUGGCUGUGGCUAGACUGCC", "note": "[G1U A16G U20G]", "self-cleavage": 0}, {"variant": "UGCAGAGCUCAGCACAGCGUGGCAUCGUGGAUGUGGCCAGGCCGCC", "note": "[G1U A12G A25U A26C C31A U38C A41G U43C]", "self-cleavage": 0.02}, {"variant": "UGCAGAGCUCAACACGGGGUGGCAAAGUGGCUGUGGCUAGACUGCC", "note": "[G1U A16G C18G]", "self-cleavage": 0.11}, {"variant": "UGUCGAGCUCUACACAGCGUCGCGAAGUGGCUGUGGCUAGACUGCC", "note": "[G1U C3U A4C A11U G21C A24G]", "self-cleavage": 0.02}, {"variant": "UGUAGAGCUCAACACAUCGUGGCAAAGUGGCUGUGGCUAGACUGCC", "note": "[G1U C3U G17U]", "self-cleavage": 0.08}, {"variant": "UGCAGAGCUCAACACAGCGUGGCACAGUGGGUGUGGCUAGAUUGCC", "note": "[G1U A25C C31G C42U]", "self-cleavage": 0.02}, {"variant": "CGCAGAGCUCAACACAGCGUGGCAAAGUGGCUGUGGCUAGACACCC", "note": "[G1C U43A G44C]", "self-cleavage": 0}, {"variant": "UGCAGAGCUCGCCACAGCGUGGCAAAGUGGCAGUGGCUAGAACGCC", "note": "[G1U A11G A12C U32A C42A U43C]", "self-cleavage": 0}, {"variant": "UGCAGAGCUCACCACAGCGUGGCAAAGUGGCUCGGGCUAGACUGCC", "note": "[G1U A12C G33C U34G]", "self-cleavage": 0.01}, {"variant": "UGCAGAGCUCAACACAGCGUGGCAACAUGGAUGUGGCUAGUCUGCC", "note": "[G1U A26C G27A C31A A41U]", "self-cleavage": 0.06}, {"variant": "UGCGGAGCUCAACAGAGCGUGGCAAAUUGGCUGUGGCUUGACUGCU", "note": "[G1U A4G C15G G27U A39U C46U]", "self-cleavage": 0.02}, {"variant": "UGCAGAGCUCAACGCAGCGGGGCCAAGUGGCUGUGGCUAGACUGCC", "note": "[G1U A14G U20G A24C]", "self-cleavage": 0.05}, {"variant": "UGCAGAGCUCGAGACAGGGUGGCAAAGUGGCUGUGGCUAGACUGCC", "note": "[G1U A11G C13G C18G]", "self-cleavage": 0.01}, {"variant": "UGGAGAGCUCAACACAUCGUGGCAAAGUGGCUGUGGCUAAACUGCC", "note": "[G1U C3G G17U G40A]", "self-cleavage": 0.04}, {"variant": "UGAAGAGCACAACACAGCGUGGCAAAGUGGCUGUGGCUAGACUGCC", "note": "[G1U C3A U9A]", "self-cleavage": 0.43}, {"variant": "UGCAGAGAUCAACUCAGCGUGACAAUGUGGCUGUGGCAAGACUACA", "note": "[G1U C8A A14U G22A A26U U38A G44A C46A]", "self-cleavage": 0.04}, {"variant": "UGCAGAGAUCAACAAAGCGUGGCAAAGUGGCUGUGGCUAGACUGCC", "note": "[G1U C8A C15A]", "self-cleavage": 0.13}, {"variant": "UGAAGAGCUCAACACAGCGUGGCAAAGUGGCUGGGGCUAGACUGCC", "note": "[G1U C3A U34G]", "self-cleavage": 0.19}, {"variant": "CGCAGAGCUCAACACAGCGUGGCAAAGUGGCUGUGGCCAGACUACC", "note": "[G1C U38C G44A]", "self-cleavage": 0.02}, {"variant": "UGAAGAGCUCAACACAGCGUGUCAAAGUGGCUGUGGCUAGACUGCC", "note": "[G1U C3A G22U]", "self-cleavage": 0.2}, {"variant": "UGAAGAGCUCAAGACAGCGUGGCAAAGUGGCUGUGGUUAGACUCCC", "note": "[G1U C3A C13G C37U G44C]", "self-cleavage": 0.17}, {"variant": "UGAAGAUCUCAACACCGGGUGGCAAAUUGUUUGUAGCUAGACUGCC", "note": "[G1U C3A G7U A16C C18G G27U G30U C31U G35A]", "self-cleavage": 0.22}, {"variant": "UGCAGAGCUCAGCACAGCGUGGCAAAGUGGCUGUGGCUAGAAUGCC", "note": "[G1U A12G C42A]", "self-cleavage": 0.02}, {"variant": "UGCCGAGCUCAACACAGCGUGGCAAAGUGGCUGUGGAUAGACUGCC", "note": "[G1U A4C C37A]", "self-cleavage": 0.03}, {"variant": "UGCAGAGCUCAACUCAACGUGGCAAAGUGGCUGUGGCUAGACUGCU", "note": "[G1U A14U G17A C46U]", "self-cleavage": 0.04}, {"variant": "UGAGGAGCGCAACACAGCGUGGCAAAGUGGAUGUGGCUAGUCUGCC", "note": "[G1U C3A A4G U9G C31A A41U]", "self-cleavage": 0.01}, {"variant": "UGCAGAGCUCAACACUGCGUAGCAAAGUCGCUGUGCCAAGACUGCC", "note": "[G1U A16U G21A G29C G36C U38A]", "self-cleavage": 0.05}, {"variant": "UGCCGAGCUGAACACAGCGUGGCAAAGUGGCUGUGGCUCGACUGCC", "note": "[G1U A4C C10G A39C]", "self-cleavage": 0.03}, {"variant": "UGCAGAGCUCGACACAGCGCGGCAAAGUGGCUGUGGCUAGACUGCA", "note": "[G1U A11G U20C C46A]", "self-cleavage": 0.01}, {"variant": "UGCAGGGCUCAACACAGAGUGGCAAAGUGGUUGUGGCUAGACUGCC", "note": "[G1U A6G C18A C31U]", "self-cleavage": 0.02}, {"variant": "UGCAGAGCUCAGCACAGCGUGGCAAAGUUGAUGUGGCUAGACUGCC", "note": "[G1U A12G G29U C31A]", "self-cleavage": 0.02}, {"variant": "UGCAGAGCUCAACACAGCGUGGCAAAGUGGCUGUGGCUAGCGUGCC", "note": "[G1U A41C C42G]", "self-cleavage": 0.03}, {"variant": "CGCAGAGCUCAACACAGCGUGGCAAAGUGGCUGAGGCAAGACUGCC", "note": "[G1C U34A U38A]", "self-cleavage": 0.01}, {"variant": "UGCAGUGCUCAACCCAGCGUGGCACAGUGGCUGUGGCUAGACUACC", "note": "[G1U A6U A14C A25C G44A]", "self-cleavage": 0.02}, {"variant": "UGCAGGGUUCAACACAGCGUGGCAAAGUGGCGGUGGUUAGACUGCC", "note": "[G1U A6G C8U U32G C37U]", "self-cleavage": 0.05}, {"variant": "UGCAGAGCUCAACGCAACGUGGCAAAGUGGCUGUGGCUAGACUGAC", "note": "[G1U A14G G17A C45A]", "self-cleavage": 0.1}, {"variant": "UGCAGAGCUCAACACAGCGUGGCAACGUGGCUGUGGCUCGACUCCC", "note": "[G1U A26C A39C G44C]", "self-cleavage": 0}]}]}
